This is an account of results in paper PMC4336329 (PLoS ONE, 2015).

SMILES strings stand for the structures. The whole screen tested about 310,000 compounds, of which about 14,000 (4.5%) showed an effect of 50% or more. The effect is printed as a negative number. The list shows a part of the results.
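Further: peak tail current of the secondary pulse compared with the same well before compound.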

human ether-à-go-go-related gene (hERG) potassium channel, sequence (Q12809 whole entry, looked up): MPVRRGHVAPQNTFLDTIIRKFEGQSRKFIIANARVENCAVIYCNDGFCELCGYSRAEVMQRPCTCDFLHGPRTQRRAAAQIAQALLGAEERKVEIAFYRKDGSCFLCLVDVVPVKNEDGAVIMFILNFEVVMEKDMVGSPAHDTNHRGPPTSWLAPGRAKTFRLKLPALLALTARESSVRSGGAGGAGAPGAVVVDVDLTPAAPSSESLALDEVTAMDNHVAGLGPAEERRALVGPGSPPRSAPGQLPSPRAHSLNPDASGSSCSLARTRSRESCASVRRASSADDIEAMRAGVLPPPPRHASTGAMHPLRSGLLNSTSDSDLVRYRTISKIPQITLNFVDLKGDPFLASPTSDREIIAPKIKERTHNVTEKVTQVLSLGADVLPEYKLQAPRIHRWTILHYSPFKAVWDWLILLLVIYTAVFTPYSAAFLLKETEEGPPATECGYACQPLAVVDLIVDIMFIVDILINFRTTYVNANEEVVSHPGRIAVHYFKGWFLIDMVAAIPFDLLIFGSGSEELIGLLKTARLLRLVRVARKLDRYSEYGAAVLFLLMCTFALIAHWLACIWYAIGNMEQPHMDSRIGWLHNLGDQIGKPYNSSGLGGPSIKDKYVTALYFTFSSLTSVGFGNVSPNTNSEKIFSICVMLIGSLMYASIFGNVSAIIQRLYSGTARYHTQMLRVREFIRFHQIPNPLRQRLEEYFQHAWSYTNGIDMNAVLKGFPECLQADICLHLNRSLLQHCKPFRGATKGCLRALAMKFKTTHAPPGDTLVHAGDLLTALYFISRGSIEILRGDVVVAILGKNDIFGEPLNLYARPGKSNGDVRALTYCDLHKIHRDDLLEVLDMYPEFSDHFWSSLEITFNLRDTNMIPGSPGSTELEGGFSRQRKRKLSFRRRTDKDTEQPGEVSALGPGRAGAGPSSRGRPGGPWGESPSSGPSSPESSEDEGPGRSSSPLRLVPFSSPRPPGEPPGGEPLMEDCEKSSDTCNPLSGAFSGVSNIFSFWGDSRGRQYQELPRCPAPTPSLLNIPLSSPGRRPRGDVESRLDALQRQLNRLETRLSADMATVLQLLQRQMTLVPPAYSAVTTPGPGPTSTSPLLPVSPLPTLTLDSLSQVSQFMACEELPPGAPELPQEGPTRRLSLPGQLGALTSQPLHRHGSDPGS

This test addresses human ether-à-go-go-related gene (hERG) potassium channel (human, UniProt Q12809). Description: primary screen, population patch clamp on CHO cells stably expressing hERG.
With `Cn1c(=NC(=O)C2CCN(S(=O)(=O)c3cccs3)CC2)sc2ccccc21`, the “hERG current change (%, negative = inhibition) at 10uM” value turned out to be 9.35%.
The figure for `NC(=O)c1cc(S(=O)(=O)N2CCCCC2)cs1` is 30%; for `O=C1NCCN1C(=O)c1ccccc1F` it is 8.05%.
The figure for `CC(=O)Nc1ccc(C2(c3ccc(NC(C)=O)cc3)NC(=O)c3ccccc32)cc1` is 4.99%; for `O=C(Nc1c(C(=O)N2CCOCC2)oc2ccccc12)c1ccccc1Cl` it is 0.111%.
The figure for `CCc1ccccc1NC(=O)CNC(=O)c1ccc(-n2cncn2)c([N+](=O)[O-])c1` is -4.79%.
As to `COCCCNC(=O)CNC(=S)N(Cc1cc(OC)c(OC)c(OC)c1)C1CCCC1`, the “hERG current change (%, negative = inhibition) at 10uM” value is listed as -3.15%.
Consider `O=C(Nc1ccc(COc2ccccc2)cc1)c1cccc([N+](=O)[O-])c1`, for which the “hERG current change (%, negative = inhibition) at 10uM” value is 21%.
The figure for `Cn1c(CNC(=O)c2ccco2)nnc1SCC(=O)N1CCN(c2ccccc2F)CC1` is 14.5%; for `CC1Oc2ccccc2N(CC(=O)NCCc2ccccc2)C1=O` (stereo not shown) it is -6.26%; for `O=C(COC(=O)/C=C/c1ccc(C(F)(F)F)cc1)NC(=O)NCc1ccco1` it is -0.129%.
For the compound `O=C1CC(c2ccccc2)CC(=O)N1c1ccc(C(F)(F)F)cc1`, the “hERG current change (%, negative = inhibition) at 10uM” value is reported as 9.01%.
Under `Cc1cc(C(F)(F)F)nn1CC(=O)NNC(=S)Nc1ccc(Cl)cc1` stands 27%; under `CC1=C(C(=O)OCc2ccccc2)C(c2ccccc2[N+](=O)[O-])NC(=O)N1C` (stereo not shown), 1.71%.
Consider `CC1CCN(S(=O)(=O)c2ccc(NC(=O)CNC3CCCCC3)cc2)CC1`, for which the “hERG current change (%, negative = inhibition) at 10uM” value amounted to 12.7%.
Regarding `Cc1cc2oc(=O)cc(CN(C)Cc3ccccc3Cl)c2cc1C`, the “hERG current change (%, negative = inhibition) at 10uM” value was 2.5%.
Take `O=C(O)c1c2c(nc3ccccc13)/C(=C/c1ccc(O)cc1)CC2`: the “hERG current change (%, negative = inhibition) at 10uM” value came to 28.5%.
With `CC1(C)C(=O)Nc2ccccc2N1C(=O)CN1C(=O)NC(CCc2ccccc2)C1=O` (stereo not shown), the “hERG current change (%, negative = inhibition) at 10uM” value is listed as 1.21%.
The figure for `CCCCCCCCCc1nc2sc3c(c2c(=O)n1NC(=O)c1ccccc1[N+](=O)[O-])CC(C)(C)OC3` is -10.8%.
The figure for `Cc1cccc2c(N=NC(=O)c3ccc(NS(=O)(=O)c4cccs4)cc3)c(O)[nH]c12` is -1.32%.
The figure for `CCC(C)c1ccc(NC(=O)c2ccco2)cc1` (stereo not shown) is -1.15%; for `c1ccc(CSc2ccc(-c3cccnc3)nn2)nc1` it is 6.82%.
For the compound `COCCNS(=O)(=O)c1cc(C)c(C)cc1C`, the “hERG current change (%, negative = inhibition) at 10uM” value amounted to 0.879%.
Under `CCc1ccccc1NC(=O)CCC(=O)c1cccs1` stands 17.7%; under `Cc1nc(NC(=O)c2cnccn2)ccc1Br`, 9.16%; under `CNCC(=O)Nc1ccc(Cl)c(C(F)(F)F)c1`, 17.6%.
The figure for `C/C(=N\NC(=O)c1ccccc1)c1ccc(N2CCCCC2)cc1` is -6.48%; for `Cc1[nH]c(=S)[nH]c(=O)c1CCCO` it is 12.6%.
As to `COC(=O)C1=C(C)NC2=C(C(=O)c3ccccc32)C1c1cccc(OC)c1` (stereo not shown), the “hERG current change (%, negative = inhibition) at 10uM” value was 4.97%.
The figure for `CC1=Nc2cc(C(=O)N3CCC4(CC3)OCCO4)ccc2Sc2ccc(Cl)cc21` is -2.21%.
Under `Cc1ccc(-c2csc(NC3OC(=O)c4ccccc43)n2)cc1` (stereo not shown) stands 7.48%.
Under `O=C(OC1CCOC1=O)c1ccccc1C(=O)c1ccc(Cl)c([N+](=O)[O-])c1` (stereo not shown) stands 4.8%.
On to `Cc1sc2nc(SCc3ccc(C(=O)O)cc3)n(Cc3ccco3)c(=O)c2c1C`, for which the “hERG current change (%, negative = inhibition) at 10uM” value was -59.2%.
Under `O=C(CSc1ncccn1)N/N=C/c1cccc([N+](=O)[O-])c1` stands -32.4%; under `COC(=O)c1cc(-c2ccccc2)nc2nc(SC)[nH]c(=O)c12`, 6.95%.
The figure for `CSc1ncccc1C(=O)Nc1nc2c(C)cccc2s1` is 6.12%; for `Cc1c(C(=O)NCCSCc2c(Cl)cccc2Cl)cccc1[N+](=O)[O-]` it is 7.47%.
Under `CCOc1ccccc1N1CC(C(=O)Nc2ccc(C(=O)O)cc2)CC1=O` (stereo not shown) stands 16.7%; under `CN(CCC#N)C(=O)c1cc2c(Cl)nc3ccccc3c2s1`, 3.44%; under `COCCn1nnnc1C(c1ccccc1)N1CCN(C(=O)c2ccco2)CC1.Cl` (stereo not shown), 16.7%.
With `COc1ccc2c(COC(=O)c3cccc(S(=O)(=O)NCC(C)C)c3)cc(=O)oc2c1`, the “hERG current change (%, negative = inhibition) at 10uM” value is 7.67%.
The figure for `CCOP(=O)(OCC)c1cccc(P(=O)(c2ccccc2)c2ccccc2)c1O` is 3.2%; for `Cc1cccc(C(=O)Nc2cccc(C(=O)NC3CCCC3)c2)c1` it is -22.6%.
The figure for `O=C(c1ccc(S(=O)(=O)Nc2ccccc2F)cc1)N1CCC1` is -0.425%.
The figure for `Cl.O=C1c2cccc3c2[C@H](CCC3)CN1[C@@H]1CN2CCC1CC2` is -46.2%; for `COc1ccc(S(=O)(=O)CCC(=O)N2CCN(c3ccccc3F)CC2)cc1` it is -8.33%.
For the compound `Cc1ccc(S(=O)(=O)Nc2ccc(OCC(=O)N3CCOCC3)cc2)c(C)c1NS(C)(=O)=O`, the “hERG current change (%, negative = inhibition) at 10uM” value was determined as 18.8%.
Under `CN1CCN(C(=S)Nc2ccc(Cl)cc2Cl)CC1` stands -5.12%; under `COc1ccccc1NC(=O)CSc1nc2sc(C)c(C)c2c(=O)n1C`, 6.42%; under `Cc1onc(-c2ccccc2)c1C(=O)Nc1ccc(NC(=O)c2c(-c3ccccc3)noc2C)cc1`, 14.2%.
Regarding `O=C(COc1ccccc1)NCC(=O)N/N=C/c1ccco1`, the “hERG current change (%, negative = inhibition) at 10uM” value is reported as -9.97%.
In the case of `COc1nc(Nc2ccccc2F)nc(OC)n1`, the “hERG current change (%, negative = inhibition) at 10uM” value is -5.88%.
Under `CCN(CC)CCCN(Cc1cc2cc(OC)ccc2[nH]c1=O)C(=O)Nc1ccc(F)cc1` stands -69.9%.
The figure for `Cc1ccccc1C(=O)Nc1ccccn1` is 3.91%.
As for `CCc1ccc(-c2csc3ncn(CC)c(=O)c23)cc1`, the “hERG current change (%, negative = inhibition) at 10uM” value is listed as -12%.
Under `COc1ccc(Cl)cc1-c1nc(N)nc(NC2CCCCC2)n1` stands 5.8%; under `Cc1ccc[n+](CC(=O)c2cc3ccccc3oc2=O)c1.[Br-]`, -10.5%; under `Cc1nc2[nH]c(=S)[nH]c2cc1Br`, 17.4%.
The figure for `Cc1[nH][nH]c(=O)c1C(c1ccc(O)c(Br)c1)c1c(C)[nH][nH]c1=O` is 4.34%; for `CS(=O)(=O)N1CCC(C(=O)Nc2ccccc2Cl)CC1` it is 18.4%.
Under `Cc1ccc2c(c1)N(CC(=O)NCCc1c[nH]c3ccccc13)C(=O)CO2` stands -15.4%; under `CCOC(=O)C(CC)(CC)C(=O)/C=C/c1cccc(Br)c1`, 7.17%.
With `CCC(=O)c1c(NC(CC)CO)cc(C)oc1=O` (stereo not shown), the “hERG current change (%, negative = inhibition) at 10uM” value is on record as 6.24%.
Under `N#CC1(NC(=O)COC(=O)c2nc(Cl)c(Cl)c(N)c2Cl)CCCCC1` stands -29.7%; under `COc1ccc(C(=O)NCC(c2cccnc2)N2CCN(c3ccccc3OC)CC2)cc1OC` (stereo not shown), -5.3%.
For the compound `COc1ccc(-c2csc(Nc3ccccc3)[n+]2CC(O)c2ccc([N+](=O)[O-])cc2)cc1.[Br-]` (stereo not shown), the “hERG current change (%, negative = inhibition) at 10uM” value stood at 13%.
The figure for `CCOc1ccc(NC(=O)Nc2ccc3c(c2)CCC3)cc1` is -29.4%; for `Cc1ccc(C)c(-n2ccnc2SCC(N)=O)c1` it is 15.6%; for `CSc1ccccc1NC(=O)Cc1ccccc1` it is 13.8%.
The figure for `COc1ccc2[nH]c(=O)c(CN(Cc3ccccc3)Cc3nnnn3CC3CCCO3)cc2c1` (stereo not shown) is -4.75%; for `N=C1S/C(=C\c2cn[nH]c2-c2ccc(F)cc2)C(=O)N1c1ccccc1F` it is 3.44%.
Turning to `O=C(COc1ccc(S(=O)(=O)N2CCCC2)cc1Cl)NCc1ccco1`, the “hERG current change (%, negative = inhibition) at 10uM” value is recorded as -25.3%.
Under `CC(=O)c1c(C)[nH]c(C(=O)COC(=O)c2nccnc2N)c1C` stands -8.55%.
Under `O=C(NCCO)c1nc(C(=O)c2ccc(Cl)cc2)c2ccccc2n1` stands -0.748%; under `CCCCN(C)C(=O)c1nc2ccccn2c1CN1CCC[C@H]1CO`, 3.21%; under `O=C1c2cccc(OCC(=O)N3N=C(c4cccs4)CC3c3ccc(F)cc3)c2CCN1Cc1cccnc1` (stereo not shown), -15.1%.
Regarding `CC(C)(C)n1nc(C2CC2)cc1NC(=O)Nc1ccc(Cl)cc1`, the “hERG current change (%, negative = inhibition) at 10uM” value came out at 25.4%.
Under `Cc1cc(=O)cc(C)n1-c1ccc(Br)cc1` stands 12.1%; under `Cc1ccc2nc(Cn3cc(C(F)(F)F)ccc3=O)cc(=O)n2c1`, 0.435%; under `Cc1cc2oc3ccc(NCCCN4CCOCC4)cc3c(=O)c2cc1C`, 10.8%.
The figure for `C=CCn1c(C(CC(C)C)CC(C)O)n[nH]c1=S` (stereo not shown) is 14.5%.
On to `Cc1ccccc1NS(=O)(=O)c1cc(C(=O)NCCC2=CCCCC2)ccc1C`, for which the “hERG current change (%, negative = inhibition) at 10uM” value is -24.6%.
The figure for `COC(=O)c1noc(C)c1-c1ccnn1C(=O)c1ccc(Cl)cc1` is 15%; for `COc1ccc(C2c3ccc4ccccc4c3Oc3ncn(CCO)c(=N)c32)cc1` (stereo not shown) it is -74.2%; for `O=C(Cn1c(=O)cnc2ccccc21)NCC(=O)Nc1ccc(F)c(F)c1` it is -2.38%.
Under `NNC(=O)Cn1nc(-c2ccccc2)c2ccccc2c1=O` stands 14.8%; under `Cc1ccc(C)c(CN2C(=O)c3ccccc3S(=O)c3ccc(C(=O)NCCCN4CCCC4)cc32)c1` (stereo not shown), -17.6%.
For the compound `O=C1C(C2=NC(C(=O)O)C3C(=O)N(c4ccccc4)C(=O)C23)=C(O)c2ccccc21` (stereo not shown), the “hERG current change (%, negative = inhibition) at 10uM” value is -10.5%.
